The full ranking holds about 33,000 sequences; the median of “E-score (-0.5 to 0.5)” is about -0.035, and the highest 2% start at about 0.34. Some of the results follow.
molecular target: T1, Mot3 (UniProt P54785); assay: PBM E-score (8-mer binding enrichment) (E-score (-0.5 to 0.5)); higher = stronger / more preferred TF binding; most listed sequences are background and not binding sites; settings: protein concentration: 200 nM; construct: GST-full length
T1 sequence: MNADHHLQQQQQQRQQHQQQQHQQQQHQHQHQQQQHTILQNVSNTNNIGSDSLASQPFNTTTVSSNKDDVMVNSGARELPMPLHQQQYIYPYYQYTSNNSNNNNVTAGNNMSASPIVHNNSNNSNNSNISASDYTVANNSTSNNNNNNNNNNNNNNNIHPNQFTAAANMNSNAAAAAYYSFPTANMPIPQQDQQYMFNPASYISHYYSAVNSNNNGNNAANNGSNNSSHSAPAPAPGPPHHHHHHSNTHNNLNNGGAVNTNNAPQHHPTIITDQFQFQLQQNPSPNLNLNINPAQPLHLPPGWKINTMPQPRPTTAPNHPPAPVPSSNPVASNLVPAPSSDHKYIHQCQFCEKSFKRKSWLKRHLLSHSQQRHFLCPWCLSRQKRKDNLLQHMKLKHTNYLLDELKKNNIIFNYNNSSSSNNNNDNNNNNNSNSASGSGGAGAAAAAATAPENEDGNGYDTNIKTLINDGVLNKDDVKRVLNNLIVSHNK
How it was run: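 For each ungapped eight-base word taken together with its reverse complement, the Universal PBM Analysis Suite assigned an E-score. Binding data came from GST-tagged yeast transcription factors, applied at about 100-200 nM, on universal all-10-mer Agilent arrays made double-stranded by primer extension. Fluorescent anti-GST marked bound protein, and scans were normalised with masliner.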

| Sequence | PBM E-score |
| --- | --- |
| CGAACTGA | -0.155 |
| ATCGTGCG | 0.0644 |
| CGCCTAAG | -0.129 |
| GTATAAGA | 0.0722 |
| GACCCTCA | -0.292 |
| AATGCTGA | -0.0191 |
| GCCGCTGA | -0.238 |
| TGCCCGCA | 0.178 |
| ATATACGC | 0.217 |
| CGAAGTCC | -0.212 |
| AGCTTACG | 0.00492 |
| GAGACAGC | -0.0888 |
| CCCACCTC | -0.245 |
| CCCCGCAA | 0.0191 |
| CCACCTTC | -0.175 |
| CAGTGAGG | -0.193 |
| GGTTCGAA | 0.0136 |
| CCTCTCAA | -0.097 |
| TCTGTCCA | -0.229 |
| AGTCCCAT | -0.115 |
| AAATCTCG | 0.189 |
| TCAGGGGA | -0.23 |
| CAGGAGTA | 0.083 |
| AGAGTTTC | -0.198 |

| Sequence | PBM E-score |
| --- | --- |
| GAACCCTA | 0.0624 |
| CGGATTTC | -0.235 |
| GTCCGCAC | -0.095 |
| AATAGAAA | -0.0461 |
| CACAAAGC | 0.168 |
| CAATTGCA | -0.0452 |
| GATGAGCA | 0.00753 |
| ACGGACGT | -0.106 |
| CACTTGCG | -0.115 |
| ACAAGCAG | 0.164 |
| AGGCGTAG | -0.068 |
| CGCTCGGC | -0.277 |
| CCCGACCA | -0.228 |
| CAGTGGAG | -0.218 |
| CGGCTTCA | -0.131 |
| ATGTGCGC | 0.0448 |
| AAGTTAAT | 0.135 |
| AGCTTTGC | -0.0939 |
| AAATTGTC | 0.117 |
| AAGTCCCG | -0.132 |
| ACGAGAAA | 0.159 |
| ACTGTTCC | 0.0173 |
| GAGCCTCC | -0.191 |
| TAGATGCA | -0.238 |

| Sequence | PBM E-score |
| --- | --- |
| ACATATCC | 0.111 |
| TGCGGAAA | -0.154 |
| CACTAGAG | -0.0736 |
| AGTCGCGG | -0.251 |
| TCTCGAAA | -0.235 |
| GGTGGAAC | -0.0846 |
| CGGGCTAG | -0.196 |
| AACAGCGG | -0.203 |
| ACGTTACA | 0.258 |
| ATTGGTAC | -0.114 |
| TACTCAAA | 0.0585 |
| CCGTGTTC | 0.27 |
| CCAGCCTA | -0.287 |
| ACCGATCA | -0.0834 |
| ACTTTGCA | 0.127 |
| AACGAATC | 0.0331 |
| TACATGCA | 0.361 |
| GATTGAAC | 0.142 |
| ACGATATC | -0.0186 |
| CCCTTCCA | -0.236 |
| AATTGTTA | 0.199 |
| CAATAAAC | -0.0282 |
| AACCCCGC | -0.102 |
| AATGCTCG | 0.0502 |

| Sequence | PBM E-score |
| --- | --- |
| CAAAAACA | 0.0805 |
| ACCCAACT | -0.0551 |
| GAGTAAGC | -0.183 |
| ATACTCAC | -0.0881 |
| ATGAGGGG | 0.00764 |
| CGTACATC | 0.0668 |
| CAGCTTAG | -0.00307 |
| ATTTGCAC | 0.0484 |
| ACCCGCAT | -0.0753 |
| ATTTTGTG | 0.0593 |
| GGCGTCAA | 0.123 |
| CCACAGCG | -0.182 |
| GCCCGCCA | -0.148 |
| ACACATCG | 0.235 |
| CATAAACG | 0.0373 |
| CTGTCGCA | -0.144 |
| ATAACGGC | -0.0831 |
| ACCAGAAT | 0.0833 |
| ATTGCTTA | 0.0157 |
| CCGGATTA | -0.0226 |
| AGCGGACC | -0.299 |
| GGTGCTAC | 0.0262 |

From the supplement of paper PMC3334620
